Consider 28 compounds from the supplement of paper PMC11880418.

Assay in all cases: ALDHbr (CSC) cell proportion score relative to DMSO vehicle (ratio to DMSO); breast (SUM159) / gastric (MKN45) / pancreatic (PANC1) / colon cancer lines; ALDHbr cells have high ALDH activity and are rich in cancer stem cells (CSC); higher = more CSC (ALDHbr) cells remaining
What all share (conditions): 10 µM; 72 h

Test [1] relates to MKN45.
Test [2] has as its system PANC1.
The test system of test [3] is SUM159.
The test system of test [4] is T84.

Counter-ions that a name gives are not always drawn. Some of the results follow. The data scatter; read single values as rough.
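Also: High-content imaging of ALDEFLUOR-stained cells with Hoechst-labelled nuclei in 384-well plates, triplicate wells, scored as Z-score against 0.1% DMSO vehicle, negative meaning fewer ALDHbr cells.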

For `Cc1ccc(N(CC2=NCCN2)c2cccc(O)c2)cc1` [Phentolamine hydrochloride], the ALDHbr in test [1] worked out at 1.23; in test [2], 0.962; in test [3], 0.902; in test [4] it was 0.941.
Consider `Cc1c(NC(C)C)c(=O)n(-c2ccccc2)n1C` [Isopyrin hydrochloride], for which the ALDHbr in test [1] amounted to 0.756; in test [2], 0.947; in test [3], 0.984; in test [4], 1.27.
For `CCOc1nc2cccc(C(=O)O)c2n1Cc1ccc(-c2ccccc2-c2nnn[nH]2)cc1` [Candesartan] the same measures were 1.06, 0.893, 0.959 and 0.922.
For `COc1ncnc(NS(=O)(=O)c2ccc(N)cc2)c1OC` [Sulfadoxine] the same measures were 1.1, 0.923, 1 and 0.924.
In the same order, the values of `CN1CCOC(c2ccccc2)c2ccccc2C1` (configuration not stated) [Nefopam hydrochloride] are 1.06, 1.02, 1.01 and 1.05.
On to `O=C(CCCN1CC=C(n2c(=O)[nH]c3ccccc32)CC1)c1ccc(F)cc1` [Droperidol], for which the ALDHbr in test [1] was determined as 0.735; in test [2], 0.717; in test [3] it was 0.875; in test [4], 0.792.
For `CC(=C(CCO)SSCC1CCCO1)N(C=O)Cc1cnc(C)nc1N` (stereo in doubt) [Fursultiamine Hydrochloride] the same measures were 0.822, 0.948, 0.881 and 0.766.
For `Cc1cc(NC(=O)C2=C(O)c3ccccc3S(=O)(=O)N2C)no1` [Isoxicam] the same measures were 0.995, 0.949, 1.17 and 0.964.
Turning to `O=C1NCCN1c1ncc([N+](=O)[O-])s1` [Niridazole], the ALDHbr in test [1] stood at 1; in test [2], 1.02; in test [3] it was 0.906; in test [4], 0.826.
For `CC(=O)OCC(=O)[C@@]1(O)CC[C@H]2[C@@H]3CCC4=CC(=O)CC[C@]4(C)[C@H]3[C@@H](O)C[C@@]21C` [Cortisol acetate] the same measures were 0.907, 0.598, 0.989 and 1.04.
In the same order, the values of `Cc1nnc(SCC2=C(C(=O)O)N3C(=O)[C@@H](NC(=O)Cn4cnnn4)[C@H]3SC2)s1` [Cefazolin sodium salt] are 0.987, 0.988, 0.84 and 1.08.
`CN(C)CCCOc1nn(Cc2ccccc2)c2ccccc12` [Benzydamine hydrochloride]: the ALDHbr in test [1] came out at 0.709; in test [2] it was 0.84; in test [3], 0.852; in test [4] it was 0.983.
In the same order, the values of `Cn1ccnc1S` [Methimazole] are 1.08, 0.899, 1.12 and 1.25.
As for `C=C[C@H]1CN2CC[C@H]1C[C@@H]2[C@@H](O)c1ccnc2ccc(OC)cc12` [Quinidine hydrochloride monohydrate], the ALDHbr in test [1] was found to be 0.858; in test [2] it was 0.898; in test [3], 1.07; in test [4], 1.01.
As for `NC[C@H]1CC[C@H](C(=O)O)CC1` [Tranexamic acid], the ALDHbr in test [1] is 0.909; in test [2], 0.734; in test [3], 1.01; in test [4], 1.04.
For `CCN(CC)CCOC(=O)c1ccc(N)cc1` [Procaine hydrochloride] the same measures were 0.991, 0.791, 1.02 and 0.822.
In the same order, the values of `NCCc1ccc(O)c(O)c1` [Dopamine hydrochloride] are 0.941, 0.985, 1.37 and 1.09.
For `CCN(CC)CC(=O)Nc1c(C)cccc1C` [Lidocaine hydrochloride] the same measures were 0.857, 1.02, 1.04 and 0.901.
Regarding `O=C(NCCNCC(O)COc1ccc(O)cc1)N1CCOCC1` (configuration not stated) [Xamoterol hemifumarate], the ALDHbr in test [1] was found to be 0.944; in test [2], 0.924; in test [3] it was 1.84; in test [4], 0.854.
`CC(=O)S[C@@H]1CC2=CC(=O)CC[C@]2(C)[C@H]2CC[C@@]3(C)[C@@H](CC[C@@]34CCC(=O)O4)[C@H]12` [Spironolactone]: the ALDHbr in test [1] is 0.739; in test [2], 0.824; in test [3], 0.742; in test [4] it was 1.08.
In the same order, the values of `CCc1cc(Cl)c(OC)c(C(=O)NC[C@@H]2CCCN2CC)c1O` [S(-)Eticlopride hydrochloride] are 0.545, 1.05, 0.85 and 0.744.
In the same order, the values of `N=C(N)N1CCc2ccccc2C1` [Debrisoquin sulfate] are 1.1, 0.765, 0.899 and 0.911.
For `CCCNC(C)C(=O)Nc1ccccc1C` (configuration not stated) [Prilocaine hydrochloride], the ALDHbr in test [1] turned out to be 0.917; in test [2], 0.859; in test [3], 0.853; in test [4], 0.818.
For `CC(=O)/N=c1/sc(S(N)(=O)=O)nn1C` [Methazolamide] the same measures were 0.81, 1.04, 1.15 and 1.15.
For the compound `c1ccc(CC2=NCCN2)cc1` [Tolazoline hydrochloride], the ALDHbr in test [1] worked out at 0.885; in test [2] it was 1.06; in test [3] it was 1.42; in test [4], 0.87.
In the same order, the values of `CC(Cc1cccc(C(F)(F)F)c1)NCCOC(=O)c1ccccc1` (configuration not stated) [Benfluorex] are 1.06, 0.892, 1.49 and 1.17.
For `CCN(CC)C(=S)SSC(=S)N(CC)CC` [Disulfiram] the same measures were 1.44, 0.966, 0.88 and 0.828.
In the case of `C[C@@H](O)[C@H]1C(=O)N2C(C(=O)O)=C(SCCNC=N)C[C@H]12` [Imipenem], the ALDHbr in test [1] is 1.02; in test [2], 0.961; in test [3], 0.972; in test [4], 0.932.
